Laboratory results published in US20230123178A1 (Hoffmann-La Roche, published 2023).

B1: monovalent PD1(0314)-targeted human 4-1BB ligand (71-254) containing Fc (kih) fusion molecule Construct 7.1 (Fc fusion)
chain 1: [about 200 residues not given here]GGGGSGGGGSREGPELSPDDPAGLLDLRQGMFAQLVAQNVLLIDGPLSWYSDPGLAGVSLTGGLSYKEDTKELVVAKAGVYYVFFQLELRRVVAGEGSGSVSLALHLQPLRSAAGAAALALTVDLPPASSEARNSAFGFQGRLLHLSAGQRLGVHLHTEARARHAWQLTQGATVLGLFRVTPEIPAGLPSPRSEGGGGSGGGGSRTVAAPSVFIFPPSDRKLKSGTASVVCLLNNFYPREAKVQWKVDNALQSGNSQESVTEQDSKDSTYSLSSTLTLSKADYEKHKVYACEVTHQGLSSPVTKSFNRGE[human IgG1 Fc with changes not given here]
chain 2: [about 200 residues not given here][about 120 residues not given here]
heavy: EVQLLESGGGLVQPGGSLRLSCAASGFSFSSYTMSWVRQAPGKGLEWVATISGGGRDIYYPDSVKGRFTISRDNSKNTLYLQMNSLRAEDTAVYYCVLLTGRVYFALDSWGQGTLVTVSSASTKGPSVFPLAPSSKSTSGGTAALGCLVKDYFPEPVTVSWNSGALTSGVHTFPAVLQSSGLYSLSSVVTVPSSSLGTQTYICNVNHKPSNTKVDKKVEPKSCDKTHTCPPCPAPEAAGGPSVFLFPPKPKDTLMISRTPEVTCVVVDVSHEDPEVKFNWYVDGVEVHNAKTKPREEQYNSTYRVVSVLTVLHQDWLNGKEYKCKVSNKALGAPIEKTISKAKGQPREPQVCTLPPSRDELTKNQVSLSCAVKGFYPSDIAVEWESNGQPENNYKTTPPVLDSDGSFFLVSKLTVDKSRWQQGNVFSCSVMHEALHNHYTQKSLSLSPGK
light: EIVLTQSPATLSLSPGERATLSCRASESVDTSDNSFIHWYQQKPGQSPRLLIYRSSTLESGIPARFSGSGSGTDFTLTISSLEPEDFAVYYCQQNYDVPWTFGQGTKVEIKRTVAAPSVFIFPPSDEQLKSGTASVVCLLNNFYPREAKVQWKVDNALQSGNSQESVTEQDSKDSTYSLSSTLTLSKADYEKHKVYACEVTHQGLSSPVTKSFNRGEC
notes: one PD1 Fab and an assembled trimeric 4-1BB ligand; CH1-CL crossover with charged residues; human IgG1 Fc knob-into-hole, P329G LALA
B2: bivalent PD1(0314)-targeted human 4-1BB ligand (71-254) containing Fc (kih) fusion molecule Construct 7.3 (Fc fusion)
heavy 1: EVQLLESGGGLVQPGGSLRLSCAASGFSFSSYTMSWVRQAPGKGLEWVATISGGGRDIYYPDSVKGRFTISRDNSKNTLYLQMNSLRAEDTAVYYCVLLTGRVYFALDSWGQGTLVTVSSASTKGPSVFPLAPSSKSTSGGTAALGCLVKDYFPEPVTVSWNSGALTSGVHTFPAVLQSSGLYSLSSVVTVPSSSLGTQTYICNVNHKPSNTKVDKKVEPKSCDKTHTCPPCPAPEAAGGPSVFLFPPKPKDTLMISRTPEVTCVVVDVSHEDPEVKFNWYVDGVEVHNAKTKPREEQYNSTYRVVSVLTVLHQDWLNGKEYKCKVSNKALGAPIEKTISKAKGQPREPQVCTLPPSRDELTKNQVSLSCAVKGFYPSDIAVEWESNGQPENNYKTTPPVLDSDGSFFLVSKLTVDKSRWQQGNVFSCSVMHEALHNHYTQKSLSLSPGGGGGSGGGGSREGPELSPDDPAGLLDLRQGMFAQLVAQNVLLIDGPLSWYSDPGLAGVSLTGGLSYKEDTKELVVAKAGVYYVFFQLELRRVVAGEGSGSVSLALHLQPLRSAAGAAALALTVDLPPASSEARNSAFGFQGRLLHLSAGQRLGVHLHTEARARHAWQLTQGATVLGLFRVTPEIPAGLPSPRSEGGGGSGGGGSREGPELSPDDPAGLLDLRQGMFAQLVAQNVLLIDGPLSWYSDPGLAGVSLTGGLSYKEDTKELVVAKAGVYYVFFQLELRRVVAGEGSGSVSLALHLQPLRSAAGAAALALTVDLPPASSEARNSAFGFQGRLLHLSAGQRLGVHLHTEARARHAWQLTQGATVLGLFRVTPEIPAGLPSPRSE
heavy 2: EVQLLESGGGLVQPGGSLRLSCAASGFSFSSYTMSWVRQAPGKGLEWVATISGGGRDIYYPDSVKGRFTISRDNSKNTLYLQMNSLRAEDTAVYYCVLLTGRVYFALDSWGQGTLVTVSSASTKGPSVFPLAPSSKSTSGGTAALGCLVKDYFPEPVTVSWNSGALTSGVHTFPAVLQSSGLYSLSSVVTVPSSSLGTQTYICNVNHKPSNTKVDKKV[human IgG1 Fc with changes not given here]GGGGSGGGGSREGPELSPDDPAGLLDLRQGMFAQLVAQNVLLIDGPLSWYSDPGLAGVSLTGGLSYKEDTKELVVAKAGVYYVFFQLELRRVVAGEGSGSVSLALHLQPLRSAAGAAALALTVDLPPASSEARNSAFGFQGRLLHLSAGQRLGVHLHTEARARHAWQLTQGATVLGLFRVTPEIPAGLPSPRSE
light: B1 light
notes: two PD1 Fabs, dimeric and monomeric 4-1BB ligand fused at the C-terminus of each heavy chain; P329G LALA, knob-into-hole
B3: monovalent PD1(0314)-targeted human 4-1BB ligand (71-248) containing Fc (kih) fusion molecule Construct 7.5 (Fc fusion)
chain 1: REGPELSPDDPAGLLDLRQGMFAQLVAQNVLLIDGPLSWYSDPGLAGVSLTGGLSYKEDTKELVVAKAGVYYVFFQLELRRVVAGEGSGSVSLALHLQPLRSAAGAAALALTVDLPPASSEARNSAFGFQGRLLHLSAGQRLGVHLHTEARARHAWQLTQGATVLGLFRVTPEIPAGLGGGGSGGGGSREGPELSPDDPAGLLDLRQGMFAQLVAQNVLLIDGPLSWYSDPGLAGVSLTGGLSYKEDTKELVVAKAGVYYVFFQLELRRVVAGEGSGSVSLALHLQPLRSAAGAAALALTVDLPPASSEARNSAFGFQGRLLHLSAGQRLGVHLHTEARARHAWQLTQGATVLGLFRVTPEIPAGLGGGGSGGGGSRTVAAPSVFIFPPSDEQLKSGTASVVCLLNNFYPREAKVQWKVDNALQSGNSQESVTEQDSKDSTYSLSSTLTLSKADYEKHKVYACEVTHQGLSSPVTKSFNRGE[human IgG1 Fc with changes not given here]
chain 2: REGPELSPDDPAGLLDLRQGMFAQLVAQNVLLIDGPLSWYSDPGLAGVSLTGGLSYKEDTKELVVAKAGVYYVFFQLELRRVVAGEGSGSVSLALHLQPLRSAAGAAALALTVDLPPASSEARNSAFGFQGRLLHLSAGQRLGVHLHTEARARHAWQLTQGATVLGLFRVTPEIPAGLGGGGSGGGGSASTKGPSVFPLAPSSKSTSGGTAALGCLVKDYFPEPVTVSWNSGALTSGVHTFPAVLQSSGLYSLSSVVTVPSSSLGTQTYICNVNHKPSNTKVDKKVEPKSC
heavy: B1 heavy
light: B1 light
notes: one PD1 Fab and an assembled trimeric 4-1BB ligand; CH1-CL crossover without charged residues; P329G LALA, knob-into-hole
B4: bivalent PD1(0314)-targeted human 4-1BB ligand (71-248) containing Fc (kih) fusion molecule (Construct 7.6) (Fc fusion)
heavy 1: EVQLLESGGGLVQPGGSLRLSCAASGFSFSSYTMSWVRQAPGKGLEWVATISGGGRDIYYPDSVKGRFTISRDNSKNTLYLQMNSLRAEDTAVYYCVLLTGRVYFALDSWGQGTLVTVSSASTKGPSVFPLAPSSKSTSGGTAALGCLVKDYFPEPVTVSWNSGALTSGVHTFPAVLQSSGLYSLSSVVTVPSSSLGTQTYICNVNHKPSNTKVDKKVEPKSCDKTHTCPPCPAPEAAGGPSVFLFPPKPKDTLMISRTPEVTCVVVDVSHEDPEVKFNWYVDGVEVHNAKTKPREEQYNSTYRVVSVLTVLHQDWLNGKEYKCKVSNKALGAPIEKTISKAKGQPREPQVCTLPPSRDELTKNQVSLSCAVKGFYPSDIAVEWESNGQPENNYKTTPPVLDSDGSFFLVSKLTVDKSRWQQGNVFSCSVMHEALHNHYTQKSLSLSPGGGGGSGGGGSREGPELSPDDPAGLLDLRQGMFAQLVAQNVLLIDGPLSWYSDPGLAGVSLTGGLSYKEDTKELVVAKAGVYYVFFQLELRRVVAGEGSGSVSLALHLQPLRSAAGAAALALTVDLPPASSEARNSAFGFQGRLLHLSAGQRLGVHLHTEARARHAWQLTQGATVLGLFRVTPEIPAGLGGGGSGGGGSREGPELSPDDPAGLLDLRQGMFAQLVAQNVLLIDGPLSWYSDPGLAGVSLTGGLSYKEDTKELVVAKAGVYYVFFQLELRRVVAGEGSGSVSLALHLQPLRSAAGAAALALTVDLPPASSEARNSAFGFQGRLLHLSAGQRLGVHLHTEARARHAWQLTQGATVLGLFRVTPEIPAGL
heavy 2: EVQLLESGGGLVQPGGSLRLSCAASGFSFSSYTMSWVRQAPGKGLEWVATISGGGRDIYYPDSVKGRFTISRDNSKNTLYLQMNSLRAEDTAVYYCVLLTGRVYFALDSWGQGTLVTVSSASTKGPSVFPLAPSSKSTSGGTAALGCLVKDYFPEPVTVSWNSGALTSGVHTFPAVLQSSGLYSLSSVVTVPSSSLGTQTYICNVNHKPSNTKVDKKV[human IgG1 Fc with changes not given here]GGGGSGGGGSREGPELSPDDPAGLLDLRQGMFAQLVAQNVLLIDGPLSWYSDPGLAGVSLTGGLSYKEDTKELVVAKAGVYYVFFQLELRRVVAGEGSGSVSLALHLQPLRSAAGAAALALTVDLPPASSEARNSAFGFQGRLLHLSAGQRLGVHLHTEARARHAWQLTQGATVLGLFRVTPEIPAGL
light: B1 light
notes: as for B2

Each binder was assayed against T1, human 4-1BB on cells (human, UniProt Q07011 24-255) (assay: cell-based or functional assay).

Binder	EC50 of NFκB-activation-induced Luciferase activity-curves, with CHO-k1-huPD1 clone 5
B1	0.004 nM
B2	0.004 nM
B3	0.006 nM
B4	0.007 nM

These binders were tested against T2, full-length human PD1 on cells (human, UniProt Q15116 25-288) (assay: flow cytometry on CHO-K1-huPD1 clone 5 cells).
T2 construct: also PD1 on primary human PBMC subsets and on Jurkat reporter cells; also called CHO-PD1; CHO-k1-huPD1 clone 5

Binder	EC50
B1	1.73 nM
B2	1.43 nM
B3	3.33 nM
B4	1.82 nM

Each binder was assayed against T1, human 4-1BB on cells (assay: flow cytometry on HeLa-huCD137-NFkB-luc clone 26 cells).
T1 sequence (Q07011 24-255): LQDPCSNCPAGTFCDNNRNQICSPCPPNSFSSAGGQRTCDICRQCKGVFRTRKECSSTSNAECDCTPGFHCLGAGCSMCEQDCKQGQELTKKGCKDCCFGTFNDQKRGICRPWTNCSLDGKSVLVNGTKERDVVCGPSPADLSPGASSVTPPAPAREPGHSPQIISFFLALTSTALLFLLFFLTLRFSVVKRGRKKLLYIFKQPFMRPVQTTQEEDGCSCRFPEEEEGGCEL

Binder	EC50
B1	0.14 nM
B2	0.28 nM
B3	0.36 nM
B4	0.32 nM

The binders below were run against T2, full-length human PD1 on cells (assay: flow cytometry, freshly isolated resting human PBMCs (table title), γδ T cells).
T2 sequence (Q15116 25-288 limits assumed): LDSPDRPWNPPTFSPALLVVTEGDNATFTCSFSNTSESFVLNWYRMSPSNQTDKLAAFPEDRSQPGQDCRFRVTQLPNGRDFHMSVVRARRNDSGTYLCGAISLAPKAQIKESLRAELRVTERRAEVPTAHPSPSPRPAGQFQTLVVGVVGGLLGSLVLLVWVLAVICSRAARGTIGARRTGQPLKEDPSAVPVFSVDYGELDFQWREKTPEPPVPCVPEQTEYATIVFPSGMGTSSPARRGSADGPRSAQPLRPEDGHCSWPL

Binder	EC50
B1	0.34 nM
B2	0.13 nM
B3	0.42 nM
B4	0.27 nM

The binders below were run against T2, full-length human PD1 on cells (assay: flow cytometry, freshly isolated resting human PBMCs (table title), CD4 T cells).

Binder	EC50
B1	0.13 nM
B2	0.11 nM
B3	0.28 nM
B4	0.11 nM

These binders were tested against T2, full-length human PD1 on cells (assay: flow cytometry, freshly isolated resting human PBMCs (table title), CD8 T cells).

Binder	EC50
B1	0.21 nM
B2	0.17 nM
B3	0.38 nM
B4	0.19 nM
